Test results from PubChem BioAssay (NCATS).
Values joined by “and” are separate entries in the source; they are usually repeats but may differ in a detail not shown here. Identical values can stand only once. Inconclusive means that the source gave no clear call. Such entries were picked first, then a sample of the others. A potency beside an inconclusive call is a rough fit, not a confirmed value. A structure can be active in one record and inactive in another. Active and inactive are the calls of the source. Calls come from the whole dose curve; as a rule, active = well fitted inhibition curve with a large enough effect; inconclusive = small, poorly fitted or top-dose-only effect; inactive = flat fitted curve, though single readings scatter.

assay: P-glycoprotein substrates identified in KB-8-5-11 adenocarcinoma cell line, qHTS therapeutic library screen (AID 1346987); conditions: KB-8-5-11 (P-gp overexpressing) viability, CellTiter-Glo, 72 h; series mostly up to 44.5 µM; note: nearly all actives have a fitted effect of over 65% in size
Procedure, shortened: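 Luminescence from CellTiter-Glo, read 5 min after addition, quantified survival of KB-8-5-11 (P-gp-overexpressing) cells exposed to compounds for 72 h. AC50 was derived from concentration-response curves.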
Potency is the fitted concentration of half-maximal effect; tags give direction and shape of the fitted curve.

| Compound | Potency | outcome |
| --- | --- | --- |
| CC(Cc1ccc2c(c1)OCO2)NO (stereo not given) | inactive | – |
| CCc1cc2c(s1)-n1c(C)nnc1CN=C2c1ccccc1Cl | inconclusive: 18.4 µM [inhibitor, partial curve] | – |
| CCN1C[C@]2(COC(=O)c3ccccc3N3C(=O)C[C@H](C)C3=O)CC[C@H](OC)[C@@]34[C@@H]5C[C@H]6[C@H](OC)[C@@H]5[C@](O)(C[C@@H]6OC)[C@](O)([C@@H](OC)[C@H]23)[C@@H]14 | inactive | – |
| CCC1(CCC(C)C)C(=O)NC(=O)NC1=O | inactive | – |
| NNc1ccccc1 | inactive | – |
| COc1cc([C@@H]2c3cc4c(cc3[C@@H](O)[C@H]3COC(=O)[C@H]23)OCO4)cc(OC)c1O | active: 0.651 µM | – |
| C=C[C@H]1CN2CCC1C[C@H]2[C@H](O)c1ccnc2ccccc12 (stereo not given in full) | inactive | – |
| CC(=O)OC1(c2ccccc2)CCN(CCc2ccccc2)CC1 | inconclusive: 25.1 µM [inhibitor, partial curve, poor fit] | – |
| CCOP(=O)(OCC)Oc1ccc2c(C)cc(=O)oc2c1 | inconclusive: 14.6 µM [inhibitor, partial curve, poor fit] | – |
| CCOc1ccccc1-n1c(C(C)N2CCN(C(=O)COc3ccc(Cl)cc3)CC2)nc2ccccc2c1=O (stereo not given) | inconclusive: 20.6 µM [inhibitor, partial curve] | – |
| C=C1C(=O)OC2/C=C(\COO)CC/C=C(\COC(C)=O)CC(OC(=O)C(C)CC)C12 (stereo not given) | inconclusive: 10 µM [inhibitor, single point] | – |
| C[C@H]1CC[C@@H]2[C@@H](C)[C@H]3[C@H](C[C@H]4[C@@H]5CC=C6CC(O[C@@H]7O[C@H](CO)[C@@H](O)[C@H](O[C@@H]8O[C@H](CO)[C@@H](O)[C@H](O)[C@H]8O)[C@@H]7O[C@@H]7O[C@@H](C)[C@H](O)[C@@H](O)[C@H]7O)CC[C@]6(C)[C@H]5CC[C@]34C)N2C1 (stereo not given in full) | – | inactive [at 9.29 µM] |
| C[C@]12CC[C@H](O)C[C@@H]1CC[C@@H]1[C@@H]2CC[C@]2(C)[C@@H](C3=CC(=O)OC3)CC[C@]12O | active: 11.4 µM | – |
| C[C@]12CCC(=O)C=C1CC[C@@H]1[C@@H]2CC[C@@]2(C)[C@H]1CC[C@]2(C)O | inconclusive: 29.1 µM [inhibitor, single point] and inconclusive: 18.4 µM [inhibitor, single point] | – |
| C=C1[C@@H](C)C2[C@H](Cc3ccccc3)NC(=O)[C@@]23C(/C=C/C[C@H](C)C[C@@](C)(O)/C=C/[C@@H]3OC(C)=O)[C@@H]1O (stereo not given in full) | active: 2.91 µM | – |
| COc1ccc(OC)c(CC(C)N)c1 (stereo not given) | inactive | – |
| O=C1OC(c2ccc(O)c(S(=O)(=O)O)c2)(c2ccc(O)c(S(=O)(=O)O)c2)c2c(Br)c(Br)c(Br)c(Br)c21 | inactive | – |
| C[C@@H]1CN(Cc2ccc(F)cc2)CCN1C(=O)COc1ccc(Cl)cc1NC(N)=O | inconclusive: 3.26 µM [inhibitor, partial curve] | – |
| C/C1=C/[C@@H](C)C/C=C/[C@H]2[C@@H]3O[C@]3(C)[C@@H](C)[C@H]3[C@H](Cc4c[nH]c5ccccc45)NC(=O)[C@]32C(=O)/C=C\C(=O)[C@@H]1O | inconclusive: 14.2 µM [inhibitor, single point] | – |
| CC(C)NCC(O)c1ccc(N)c(C#N)c1 (stereo not given) | inactive | – |

| Compound | Potency | outcome |
| --- | --- | --- |
| O=C1CN=C(c2ccccc2Cl)c2cc(Br)ccc2N1 | inconclusive: 25.9 µM [inhibitor, partial curve, poor fit] | – |
| C[C@H]1CN(Cc2ccc(CC(=O)N3CCC(Nc4cccc(F)c4)CC3)cc2)CCN1 | inconclusive: 14.6 µM [inhibitor, single point] | – |
| COC1C(O)C(C)OC(OC2C(CO)O[C@@H](O[C@@H]3CC4CCC5C(CC[C@]6(C)[C@@H](C7=CC(=O)OC7)CC[C@]56O)[C@@]4(C)[C@H](O)C3)C(O)C2O)C1O (stereo not given in full) | active: 0.544 µM | – |
| Nc1ccc(Cl)cc1N | inconclusive: 31.6 µM [inhibitor, single point] | – |
| O=C(CCCN1CCC(n2c(=O)[nH]c3ccccc32)CC1)c1ccc(F)cc1 | inconclusive: 7.85 µM [inhibitor, partial curve] | – |
| CCOP(=O)(NC(C)C)Oc1ccc(SC)c(C)c1 (stereo not given) | inconclusive: 28.2 µM [inhibitor, partial curve] | – |
| C[C@@H]1O[C@@H](OC2CCC3(C=O)C(CCC4C3CCC3(C)C(C5=CC(=O)OC5)C(O)CC43O)C2)[C@H](O)[C@H](O)[C@H]1O[C@@H]1O[C@H](CO)[C@@H](O)[C@H](O)[C@H]1O (stereo not given in full) | active: 6.11 µM | – |
| Nc1ccc(Cl)cc1 | inactive | – |
| CNC(C)(C)Cc1ccccc1 | inactive | – |
| CC(Cc1ccccc1)NCCn1cnc2c1c(=O)n(C)c(=O)n2C (stereo not given) | inconclusive: 25.1 µM [inhibitor, partial curve] | – |
| CN1C(=O)[C@@H](Cc2c[nH]c3ccccc23)N=C(c2ccccc2F)c2ccccc21 | inconclusive: 16.4 µM [inhibitor, single point] | – |
| C[C@]12CC[C@@H](O[C@@H]3O[C@H](CO)[C@@H](O)[C@H](O)[C@H]3O)C[C@@]1(O)CCC1C2CC[C@]2(C)[C@@H](C3=CC(=O)OC3)CC[C@]12O (stereo not given in full) | active: 0.159 µM | – |
| COc1ccc(N(C(=O)Oc2c(C)cccc2C)c2ccnc(Nc3ccc(N4CCN(C)CC4)cc3)n2)c(OC)c1 | inactive and active: 20.6 µM | – |
| OC(CNc1ccccc1)Cn1c2ccc(Br)cc2c2cc(Br)ccc21 (stereo not given) | inconclusive: 18.4 µM [inhibitor, single point] | – |
| CO[C@H]1[C@H](O)[C@H](O[C@H]2CC[C@]3(C=O)C4CC[C@]5(C)[C@H](C6=CC(=O)OC6)CC[C@]5(O)C4CC[C@@H]3C2)O[C@@H](C)[C@@H]1O (stereo not given in full) | active: 0.0252 µM | – |
| CC1=CC(=O)[C@@H](O)[C@@]2(C)C1C[C@H]1OC(=O)[C@H](O)[C@@]3(O)[C@@H](C)[C@@H](O)[C@H](O)C2[C@@]13C (stereo not given in full) | inconclusive: 0.114 µM [inhibitor, full curve, poor fit] | – |
| COC(=O)C1(C)CCC(=O)C2(C)c3c(O)cc(C(C)C)cc3C(O)C(OC(C)=O)C12 (stereo not given) | inactive | – |
| CC(=O)OC[C@]12C[C@H](O)C(C)=C[C@H]1O[C@@H]1[C@H](O)[C@@H](OC(C)=O)[C@@]2(C)[C@]12CO2 | active: 0.0143 µM | – |
| Cc1sc2c(c1C)C(c1ccc(Cl)cc1)=NC(CC(=O)Nc1ccc(O)cc1)c1nnc(C)n1-2 (stereo not given) | inconclusive: 5.8 µM [inhibitor, partial curve] | – |
| CC[C@H](C)[C@H](NC(=O)[C@H]1CCCCN1C)C(=O)N(COC(=O)CC(C)C)[C@H](C[C@@H](OC(C)=O)c1nc(C(=O)N[C@@H](Cc2ccc(O)cc2)C[C@H](C)C(=O)O)cs1)C(C)C | active: 0.0019 µM | – |
